From the antibiotic and cytotoxicity screens of Wong et al. (2023)
This is one part of the list.

Tested on: HSkMC (human skeletal muscle cells)
Assay: cytotoxicity call (relative viability < 0.9)
Details: 10 µM

| SMILES | cytotoxicity call |
| --- | --- |
| C[C@@H]1CCCCO[C@H](CN(C)Cc2ccncc2)[C@H](C)CN([C@H](C)CO)C(=O)c2cc(NC(=O)CCC(F)(F)F)ccc2O1 | inactive |
| CC(C)NC(=O)Nc1ccc2c(c1)C(=O)N([C@@H](C)CO)C[C@@H](C)[C@@H](CN(C)Cc1ccccc1)OCCCC[C@@H](C)O2 | inactive |
| C[C@H]1CN([C@@H](C)CO)C(=O)Cc2cc(NC(=O)Nc3ccc(C(F)(F)F)cc3)ccc2O[C@@H]1CN(C)C(=O)Nc1ccc(F)cc1 | inactive |
| O=C(Cn1cc(COc2ccc(Cl)c(Cl)c2)nn1)NS(=O)(=O)c1cccc(OC(F)F)c1 | inactive |
| COc1ccc(S(=O)(=O)Nc2ccc3c(c2)C(=O)N([C@@H](C)CO)C[C@H](C)[C@@H](CN(C)S(=O)(=O)c2cn(C)cn2)OCCCC[C@H](C)O3)cc1 | inactive |
| Cc1cc(C)n(CCC(=O)O)n1 | inactive |
| C[C@@H]1CCCCO[C@H](CN(C)Cc2ccc3c(c2)OCO3)[C@@H](C)CN([C@@H](C)CO)C(=O)c2cc(NC(=O)Nc3ccc(C(F)(F)F)cc3)ccc2O1 | active |
| COCC#Cc1cnc2c(c1)C(=O)N([C@H](C)CO)C[C@@H](C)[C@@H](CN(C)S(=O)(=O)c1cccc(OC)c1)O2 | inactive |
| C[C@@H]1CN([C@H](C)CO)C(=O)c2cc(NC(=O)Nc3ccc(C(F)(F)F)cc3)ccc2O[C@@H](C)CCCCO[C@H]1CN(C)S(C)(=O)=O | inactive |
| C[C@@H]1CCCCO[C@@H](CN(C)S(=O)(=O)c2cccs2)[C@@H](C)CN([C@@H](C)CO)C(=O)c2cc(NS(=O)(=O)c3cn(C)cn3)ccc2O1 | inactive |
